# Some of the results follow. Many values rest on one well or one pass, so single values are uncertain.
# Tested on: RVH-421
# Experiment: cell count relative to DMSO control; melanoma cells; higher = more viable cells
# Details: library dose: standard library concentration; 72 h
# 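Note: cells treated in 1,536-well plates, then fixed and DAPI-stained, with nuclei counted from automated high-throughput microscope images.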
row,SMILES,cell count [%]
1,"COc1cc([C@@H]2c3cc4c(cc3[C@@H](O[C@@H]3O[C@@H]5CO[C@@H](C)O[C@H]5[C@H](O)[C@H]3O)[C@H]3COC(=O)[C@H]23)OCO4)cc(OC)c1O [etoposide] + COc1ccc(C2=N[C@@H](c3ccc(Cl)cc3)[C@@H](c3ccc(Cl)cc3)N2C(=O)N2CCNC(=O)C2)c(OC(C)C)c1 [Nutlin-3] (first compound 0.1 µM, partner dose 0.5 µM)",53.5
2,"Cn1cnc2c(F)c(Nc3ccc(Br)cc3Cl)c(C(=O)NOCCO)cc21 [selumetinib] + COc1ccc(COc2ccc(Cc3cnc(N)nc3N)cc2OC)cc1 [GW2580] (first compound 0.075 µM, partner dose 5 µM)",83.5
3,"C[C@]1(O)C[C@@H](c2nc(-c3ccc4ccc(-c5ccccc5)nc4c3)c3c(N)nccn32)C1 + Cn1c(=O)n(-c2ccc(C(C)(C)C#N)cc2)c2c3cc(-c4cnc5ccccc5c4)ccc3ncc21 [NVP-BEZ235] (first compound 2 µM, partner dose 0.02 µM)",74.4
4,"Cn1cnc2c(F)c(Nc3ccc(Br)cc3Cl)c(C(=O)NOCCO)cc21 [selumetinib] + O=C(O)c1ccc(-c2c[nH]c3ncc(-c4ccccc4)cc23)cc1C1CCCC1 [GSK650394] (first compound 0.075 µM, partner dose 0.8 µM)",84.9
5,"COc1cc([C@@H]2c3cc4c(cc3[C@@H](O[C@@H]3O[C@@H]5CO[C@@H](C)O[C@H]5[C@H](O)[C@H]3O)[C@H]3COC(=O)[C@H]23)OCO4)cc(OC)c1O [etoposide] + COc1ccc2c(c1)CCC1C2CCC2(C)C(NCCCCCCN3C(=O)C=CC3=O)CCC12 [U73122] (first compound 0.1 µM, partner dose 2 µM)",79.9
6,"COc1cc([C@@H]2c3cc4c(cc3[C@@H](O[C@@H]3O[C@@H]5CO[C@@H](C)O[C@H]5[C@H](O)[C@H]3O)[C@H]3COC(=O)[C@H]23)OCO4)cc(OC)c1O [etoposide] + COc1ccc(-c2ccc3c(N4CCOCC4)nc(N4C[C@@H](C)O[C@@H](C)C4)nc3n2)cc1CO [KU0063794] (first compound 0.1 µM, partner dose 0.1 µM)",99.9
7,"COc1cc([C@@H]2c3cc4c(cc3[C@@H](O[C@@H]3O[C@@H]5CO[C@@H](C)O[C@H]5[C@H](O)[C@H]3O)[C@H]3COC(=O)[C@H]23)OCO4)cc(OC)c1O [etoposide] + Cc1cc(N2CCOCC2)cc2[nH]c(-c3c(NC[C@@H](O)c4cccc(Cl)c4)cc[nH]c3=O)nc12 [BMS536924] (first compound 0.1 µM, partner dose 1 µM)",108
8,"Cn1cnc2c(F)c(Nc3ccc(Br)cc3Cl)c(C(=O)NOCCO)cc21 [selumetinib] + CN1CCN(c2ccc3nc(-c4c(N)c5c(F)cccc5[nH]c4=O)[nH]c3c2)CC1 [Dovitinib] (first compound 0.075 µM, partner dose 0.5 µM)",71.3
9,"C[C@]1(O)C[C@@H](c2nc(-c3ccc4ccc(-c5ccccc5)nc4c3)c3c(N)nccn32)C1 + O=S(=O)(c1ccccc1)N(CC(F)(F)F)c1ccc(C(O)(C(F)(F)F)C(F)(F)F)cc1 [T0901317] (first compound 2 µM, partner dose 7 µM)",91.6
